Reference: PubChem BioAssay AID493208 (National Center for Advancing Translational Sciences (NCATS), 2011)
The whole screen tested about 44,000 compounds, of which about 340 (0.77%) were called active. Not shown: some 5% with an inconclusive outcome. Calls come from the whole dose curve; as a rule, active = well fitted inhibition curve with a large enough effect; inconclusive = small, poorly fitted or top-dose-only effect; inactive = flat fitted curve, though single readings scatter. The list shows a part of the results.

test: Acumen qHTS Assay for Inhibitors of the mTORC1 Signaling Pathway in MEF (Tsc2-/-, p53-/-) Cells: Sytravon; conditions: phospho-rpS6 immunofluorescence/PI, 24 h; series mostly up to 38.3 µM; activity change, negative = inhibition: at the top concentration;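 note: plate controls were DMSO for no effect and rapamycin for full effect; nearly all actives have a fitted effect of over 50% in size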
Procedure, shortened: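 Cell-based qHTS: Tsc2-/- p53-/- MEF, 24 h cpd, 37 °C; fix/perm, anti-phospho-S6 Alexa-488 + PI; Acumen 488 nm scan; pS6/PI ratio, % positive cells; rapamycin 7.5 nM = inhibition ref; PI count = viability.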

| Compound | activity change, negative = inhibition |
| --- | --- |
| O=C(CSc1nc2c(cnn2-c2ccc(F)cc2)c(=O)[nH]1)Nc1ccccc1C(F)(F)F | inactive: -0.0492% |
| COc1cccc(CNC(=O)c2cc3ccc4cccnc4c3[nH]2)c1 | inactive: -5.1% |
| COc1ccccc1N1CCN(C(=O)c2cc3c(=O)oc4ccccc4c3s2)CC1 | inactive: -5.67% |
| CCOc1ccc(N2CC(c3nc4ccccc4n3CCOc3ccccc3)CC2=O)cc1 (configuration not stated) | inactive: 6.82% |
| Cc1ccc(NC(=O)c2cc(S(=O)(=O)N3CCCCC3)c[nH]2)cc1F | inactive: -7.07% |
| Cc1nn(-c2ccccc2)c2sc(C(=O)Nc3cccc(Br)c3)cc12 | inactive: -17.6% |
| Cc1nc2ncnn2c(C)c1CCC(=O)NCc1cccc(Cl)c1 | inactive: -8.35% |
| COc1ccc(C2C=C(c3ccccc3)Nc3nc(NC(=O)/C=C/c4ccc(Cl)cc4)nn32)cc1 (configuration not stated) | inactive: 2.66% |
| CCOC(=O)c1c(NC(=O)COc2ccc(Br)cc2)sc(C(C)=O)c1C | inactive: 3.29% |
| Cc1noc(C)c1S(=O)(=O)NCCc1csc2nc(-c3ccc(Cl)cc3)nn12 | inactive: -1.15% |
| COc1ccccc1-c1nnc(C2CCN(S(=O)(=O)c3ccc(F)c(C)c3)CC2)o1 | inactive: -11.6% |
| O=C(COc1ccc(F)cc1)Nc1ccc(Cl)c(-c2nc3ccccc3[nH]2)c1 | inactive: -9.14% |
| CCOC(=O)N1CCN(C(=O)Cn2ncc3c4ccccc4n(Cc4ccc(F)cc4)c3c2=O)CC1 | inactive: 0.284% |
| Cc1cccc(NC(=O)c2c(C)oc3ncnc(N4CCCCC4)c23)c1C | inactive: -6.31% |
| CCCCc1nn2c(=O)cc(COC(=O)c3ccccc3NC(=O)c3cccc(C)c3)nc2s1 | inactive: 7.74% |
| Cc1ccc(Cl)cc1NS(=O)(=O)c1ccc(N2CCCCS2(=O)=O)cc1 | inactive: 0% |
| Cc1nc(-c2ccc(F)cc2)sc1CCNC(=O)c1ccc(C(C)(C)C)cc1 | inactive: 0% |
| COc1ccc2nc(NC(=O)c3cc(=O)c4cc(C)c(C)cc4o3)sc2c1 | inactive: -1.07% |
| CC(=O)Nc1cccc(-c2cn3cccnc3n2)c1 | inactive: -0.377% |
| Cc1ccc(NC(=O)Cn2c(=O)n(Cc3ccccc3)c(=O)c3c2c2cc(C)ccc2n3C)cc1 | inactive: 0.966% |
| CCOc1ccc(C(=O)c2c(N)c(-c3nc(-c4ccc(OCC)cc4)cs3)c3ccccn23)cc1 | inactive: -0.0438% |
| Cc1ccc(C(=O)NCC(c2cccnc2)N2CCc3ccccc3C2)cc1C (configuration not stated) | inactive: 7.2% |
| CCOC(=O)CSc1nc2c(sc3ccccc32)c(=O)n1Cc1ccc(OC)cc1 | inactive: 0.475% |
| Cc1cccc(NC(=O)c2sc(-n3nc(C)c(CCC(C)C)c3C)nc2C)c1 | inactive: -0.881% |
| Cc1ccc2c(c1)N(C(=O)N1CCC(C(=O)NCc3ccccc3F)CC1)CC(C)O2 (configuration not stated) | inactive: 4.77% |

| Compound | activity change, negative = inhibition |
| --- | --- |
| Nc1c(C(=O)c2ccccc2)sc(Nc2ccc(Cl)c(Cl)c2)c1C(=O)Nc1ccccc1 | inactive: -5.53% |
| N#Cc1ccccc1OCC(=O)N1CCN(c2ccccc2F)CC1 | inactive: -4.35% |
| O=S(=O)(c1ccccc1)c1nc(-c2ccccc2F)oc1N1CCOCC1 | inactive: -19.8% |
| COc1ccc(-c2cn3c(n2)sc2cc(C(=O)Nc4ccc(C)cc4C)ccc23)cc1 | inactive: 1.06% |
| COc1ccc(CCNc2nc3cc(OC)c(OC)cc3c3nc(-c4cccnc4)nn23)cc1OC | inactive: -3.49% |
| COc1ccc(OC)c(NC(=O)N2CCN(Cc3nc4ccc(C)cc4o3)CC2)c1 | inactive: 0% |
| COc1cc2ccccc2cc1C(=O)Nc1ccc2oc(-c3cccc(C)c3)nc2c1 | inactive: -4.14% |
| CCOc1ccc(NC(=O)CCSc2nc(-c3ccc4c(c3)OCO4)cc(C(F)(F)F)n2)cc1 | inactive: -5.98% |
| COc1ccc(-n2c3c(cc(-c4nc(-c5ccc(Cl)cc5)cs4)c2=O)C(=O)CC(C)(C)C3)cc1Cl | inactive: 0.04% |
| Cc1ccccc1NCc1nc2ccccc2n1CCOc1ccccc1 | inactive: 7.5% |
| CCN1C(=O)c2ccccc2Sc2ccc(NC(=O)c3ccc(C#N)cc3)cc21 | inactive: -1.97% |
| CN(C(=O)Cn1nnc(-c2ccc(S(C)(=O)=O)cc2)n1)c1ccccc1 | inactive: -0.0924% |
| Cc1c(C(=O)N(C)C)sc2c1c(=O)n(-c1ccccc1C(F)(F)F)c(=O)n2Cc1cccc(F)c1 | inactive: -5.2% |
| COc1ccc(C(=O)Nc2nc3c(s2)Cc2cc(OC)ccc2-3)cc1 | inactive: -10.8% |
| COc1ccc(NC(=O)CSc2oc(-c3ccco3)nc2S(=O)(=O)c2ccccc2)c(OC)c1 | inactive: 0% |
| CCc1ccc(S(=O)(=O)c2nnn3c2nc(NCc2ccccc2)c2cc(Cl)ccc23)cc1 | inactive: 1.67% |
| O=C(Nc1ccc(Cl)cc1)c1cc(S(=O)(=O)NC2CCCCCC2)ccc1F | inactive: 0% |
| CCN1C(=O)C(Cc2nc3ccccc3c(=O)n2C)c2cc(C)ccc21 (configuration not stated) | inactive: -0.431% |
| CCCNC(=O)C(Cc1ccccc1)NS(=O)(=O)c1ccc2c(c1)c(=O)n(C)c(=O)n2C (configuration not stated) | inactive: -0.0264% |
| CCOc1ccc(C(=O)Nc2ccc3c(c2)OCCO3)cc1Br | inactive: 1.02% |
| Cc1ccc(-c2csc3ncnc(Nc4ccc(C(=O)O)cc4)c23)cc1 | inactive: 6.72% |
| O=C(CN1CCN(Cc2ccccc2Cl)C1=O)NCCc1ccc(Cl)cc1 | inactive: -20.7% |
| COc1ccccc1-c1nc2cc(NC(=O)c3ccccc3Cl)ccc2o1 | inactive: 14% |
| COc1ccc2c(c1)CCc1c(C(=O)Nc3ccc(OC)cc3OC)noc1-2 | inactive: 7.1% |
| COc1ccccc1NC(=O)c1sc2nc3n(c(=O)c2c1C)N=C(c1cccc(Br)c1)CS3 | inactive: -0.0379% |

| Compound | activity change, negative = inhibition |
| --- | --- |
| COc1ccc(Cl)cc1NC(=O)CN1Cc2ccccc2C1=O | inactive: 3.91% |
| COC(=O)c1ccc2c(c1)N(Cc1ccccc1)C(=O)c1ccccc1S2(=O)=O | inactive: 0% |
| COc1ccc(Cn2c(C(=O)O)c(CNC3CCCCC3)c3ccc(C)cc32)cc1 | inactive: -8.86% |
| COc1ccc(OC)c(/C=C(\C#N)c2nc(-c3ccc(F)cc3)cs2)c1 | inactive: -0.846% |
| Cc1nc(S(=O)(=O)N2CCN(c3ccccc3F)CC2)cn1C | inactive: 0.341% |
| Nc1c(-c2nc(-c3ccc4c(c3)OCO4)cs2)c2ccccn2c1C(=O)c1ccc(Cl)cc1 | inactive: -5.37% |
| O=C(O)c1ccc(NC(=O)c2ccc(Br)c(S(=O)(=O)N3CCCC3)c2)cc1 | inactive: -14.5% |
| CCOc1ccc(NC(=O)Cc2c[nH]c3ccccc23)cc1 | inactive: -3.33% |
| Cc1ccc(SCc2nc(-c3ccc(C(=O)NCC(C)c4ccccc4)cc3)oc2C)cc1 (configuration not stated) | inactive: -1.07% |
| CCCC12CN3CC(C)(CN(C1)C3c1ccc(OCc3ccccc3)cc1)C2=O (configuration not stated) | inactive: -0.009% |
| Cc1cccc(CNC(=O)CN2C(=O)CCn3nc(-c4cn(C)c5ccccc45)cc32)c1 | inactive: 0% |
| CCN(c1ccccc1)S(=O)(=O)c1ccc(NC(=O)c2nc(SC(C)C)ncc2Cl)cc1 | inactive: -0.166% |
| CCOC(=O)c1cnc2ccc(OCC)cc2c1Nc1ccc(OCc2ccccc2Cl)cc1 | inactive: 2.41% |
| Cc1cccc(CNC(=O)CN2C(=O)CSc3c2c(C)nn3-c2ccccc2)c1 | inactive: -3.31% |
| COc1cc(C(CC(=O)Nc2ncccc2C)N2Cc3ccccc3C2=O)cc(OC)c1OC (configuration not stated) | inactive: -0.44% |
| CC(=O)c1cc(-c2ccc(F)cc2)n(CCC(=O)Nc2nc3ccc(C)cc3s2)c1C | inactive: 0.745% |
| COc1ccc(-c2nc3cc(NC(=O)c4ccc(C)cc4)ccc3o2)cc1Cl | inactive: 18.1% |
| CCOc1ccc(Br)cc1C1NC(=O)c2c(sc3c2CCN(C)C3)N1 (configuration not stated) | inactive: -5.95% |
| O=C(OCc1cc(=O)n2nc(C3CC3)sc2n1)c1ccc(NC(=O)c2ccccc2F)cc1 | inactive: 0% |
| Cc1ccc(C(=O)N2CCC(C)CC2)cc1NC(=O)c1nsc2ccccc12 | inactive: 5.85% |
| CC1CCN(S(=O)(=O)c2ccc3nc(N4CCN(c5ccc(F)cc5)CC4)ccc3c2)CC1 | inactive: -2.38% |
| COc1ccc(CCNc2ncnc3onc(C)c23)c(OC)c1 | inactive: 0.688% |
| Cc1ccc(S(=O)(=O)c2cc3cc(C(=O)Nc4ccc(C)cc4C)ccc3oc2=O)cc1 | inactive: -0.0801% |
| CC1CCCCN1CCCNC(=O)Cn1ncc2c3ccccc3n(C)c2c1=O (configuration not stated) | inactive: 1.85% |
| CCc1ccccc1NC(=O)c1ccc(F)c(S(=O)(=O)N2CCN(c3cccc(Cl)c3)CC2)c1 | inactive: 2.75% |

| Compound | activity change, negative = inhibition |
| --- | --- |
| COc1cccc(C(=O)N(Cc2ccc(C)o2)C2CCS(=O)(=O)C2)c1 (configuration not stated) | inactive: 2.45% |
| COc1ccc(-c2cc(C(F)(F)F)nc(NCc3ccc(F)cc3)n2)cc1 | inactive: 0.101% |
| CCOc1ccc(NC(=O)CSc2oc(-c3ccc(C)cc3)nc2S(=O)(=O)c2ccc(C)cc2)cc1 | inactive: 0% |
| Cc1ccc(O)c(-c2n[nH]c3c2C(c2ccc(F)cc2)N(Cc2ccco2)C3=O)c1 (configuration not stated) | inactive: 4.54% |
| O=C(COCc1cc(-c2cccs2)on1)Nc1cc(C(F)(F)F)ccc1Cl | inactive: -12.6% |
| Cc1cc(C)c(NC(=O)CSc2nc3c([nH]c4ccccc43)c(=O)n2C)c(C)c1 | inactive: 0.601% |
| COc1ccc(CCNC(=O)c2ccc(Cn3c(=O)[nH]c4cc(OC)c(OC)cc4c3=O)cc2)cc1OC | inactive: 3.29% |
| CCCCNC(=O)CN1CCN(c2ncc(NC(=O)c3ccc(Cl)cc3)cc2C(=O)O)CC1 | inactive: 1.92% |
| COc1cc(NC(=O)C2CCN(c3nc4ccccc4nc3C(F)(F)F)CC2)cc(OC)c1 | inactive: -11.5% |
| CCc1ccccc1N(CC)C(=O)C1CCN(c2ncnc3c2nc2n3CCCCC2)CC1 | inactive: -2.98% |
| CCCOc1cccc(C2c3c(oc4ccc(F)cc4c3=O)C(=O)N2c2nc(C)c(C(C)=O)s2)c1 (configuration not stated) | inactive: 0.484% |
| O=c1c2ccccc2n(Cc2cccc(Cl)c2)c(=O)n1Cc1ccccc1 | inactive: -0.869% |
| CCN(C(=O)Cn1ncc2c(=O)oc3ccccc3c21)c1ccccc1F | inactive: -10.2% |
| CN1CCN(C(CNC(=O)c2c(F)cccc2F)c2ccc3c(c2)OCO3)CC1 (configuration not stated) | inactive: -17.1% |
| Cc1cccc(N2CCN(C(=O)c3cc4ccc5cccnc5c4[nH]3)CC2C)c1 (configuration not stated) | inactive: -10.3% |
| CCC(C)NC(=O)c1sc2nc3n(c(=O)c2c1C)CCC3 (configuration not stated) | inactive: 9.21% |
| COCCc1nn2c(=O)cc(COC(=O)c3ccc(Br)cc3)nc2s1 | inactive: 5.55% |
| COCCCNc1nc(NCc2ccc(C)cc2)c2cnn(C)c2n1 | inactive: 0.763% |
| O=c1oc2ccccc2cc1-c1nc(-c2cccs2)no1 | inactive: -7.26% |
| COc1ccccc1-c1nc(SCC(=O)c2ccc(Cl)cc2)n[nH]1 | inactive: -18.9% |
| CCC(=O)Nc1sc2c(c1C(=O)Nc1ccc(Br)cc1)CCCCC2 | inactive: 10.7% |
| COc1ccccc1NC(=O)c1sc2nc(C)c(C(=O)Nc3ccc(C)cc3C)c(-c3ccccc3Cl)c2c1N | inactive: 0% |
